The record followed here is PubChem BioAssay AID1508624 (National Center for Advancing Translational Sciences (NCATS), 2021).

Among all 48,000 compounds or so, about 120 (0.25%) were called active. Inconclusive results (about 4%) are left out. The call rests on the fitted dose curve; in most records, active means well fitted activation curve with a large enough effect; inconclusive means small, poorly fitted or top-dose-only effect, or another doubt; inactive means no such curve, though single readings can be large or run the other way. Some of the results follow.

A short description of this assay: Primary qHTS for Identification of Small Molecule Activators of Huntingtin-Antisense Promoter Activity. Further: nearly all actives have a fitted effect of over 55% in size. As to conditions: HEK293 HTT-AS promoter firefly luciferase reporter, 24 h; series mostly up to 57.5 µM; activity change, positive = activation: at the top concentration. The gist of the method:
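HEK293 cells carrying firefly luciferase reporters were seeded at 2,500 per well in Opti-MEM and cultured for 24 h. They were then treated with compounds at up to 57.5 uM final for 24 h at 37 degrees C before Dual-Glo luminescence readout.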
On to `COC(=O)c1c(Oc2ccc(Br)cc2)nnc(-c2ccccc2)c1-c1ccccc1`, for which the “activity change, positive = activation” value was inactive: -11.7%.

Regarding `Cc1ccc(CN2CCC(CNC(=O)Nc3cccc(C)c3C)C2)cc1` (stereo unspecified), the “activity change, positive = activation” value is inactive: -9%.

Turning to `CCc1nc2nc(C)cc(Nc3ccc(F)c(Cl)c3)n2n1`, the “activity change, positive = activation” value is inactive: -28.6%.

With `Cc1cccc(C(=O)Nc2ccccc2OCc2cc(=O)n3cc(C)ccc3n2)c1`, the “activity change, positive = activation” value was inactive: -3.11%.

Turning to `CC(=O)N1CCCc2cc(S(=O)(=O)N3CCCC(C(=O)Nc4ccc(C)c(F)c4)C3)ccc21` (stereo unspecified), the “activity change, positive = activation” value was inactive: -35.8%.

As for `COc1ccccc1-c1c(C)nn2c(N3CCN(c4ccc(F)cc4)CC3)cc(C)nc12`, the “activity change, positive = activation” value is inactive: -8.53%.

As to `CCN(CC)CCCNc1oc(-c2ccc(OC)cc2)nc1C#N`, the “activity change, positive = activation” value was inactive: -10.3%.

Consider `CC(Oc1ccc(O)cc1)(P(=O)(O)O)P(=O)(O)O`, for which the “activity change, positive = activation” value was inactive: -13.1%.

On to `CC(C)n1c(=O)c2oc3ccccc3c2n(CC(=O)Nc2ccccc2Cl)c1=O`, for which the “activity change, positive = activation” value is inactive: -8.91%.

With `CCOC(=O)c1c(C)[nH]c(C)c1S(=O)(=O)N(C)CC(=O)Nc1ccc(C)c(F)c1`, the “activity change, positive = activation” value was inactive: -4.13%.

With `CC(=O)Nc1ccc2nc(SCCOc3ccccc3Cl)sc2c1`, the “activity change, positive = activation” value was inactive: -5.43%.

On to `CCCCN(c1ccccc1)c1ncnc2c1cnn2-c1cccc(C)c1`, for which the “activity change, positive = activation” value is inactive: 20.6%.

As to `COC(=O)c1cc2sccc2n1Cc1nc(-c2ccc(C)cc2)oc1C`, the “activity change, positive = activation” value was inactive: -15.8%.

In the case of `Cc1cc(C)c(NC(=O)C2CCCN(C(=O)c3cnn(-c4ccccc4)c3-n3cccc3)C2)c(C)c1` (stereo unspecified), the “activity change, positive = activation” value was inactive: -29.6%.

On to `CCc1ccccc1NC(=O)c1ccc2c(c1)c(C)c(C)n2Cc1ccccc1`, for which the “activity change, positive = activation” value is inactive: -14.9%.

Regarding `CN(C(=O)CSc1nc2ccccc2n1CC(=O)N(C)C1CCCCC1)c1ccc(F)cc1`, the “activity change, positive = activation” value is inactive: -13.1%.

Turning to `O=C(COc1ccc(Br)cc1)Nc1ccc(C(=O)OC2CCCCC2)cc1`, the “activity change, positive = activation” value is inactive: 7.23%.

For the molecule `CCOc1ccc(NC(=O)Cn2c(=O)n(-c3ccccc3)c(=O)c3c4c(sc32)CCCC4)cc1`, the “activity change, positive = activation” value is inactive: -4.16%.

For the molecule `COc1ccc(NC(=O)CCc2c(C)nc3cc(-c4cccc(F)c4)nn3c2C)cc1Cl`, the “activity change, positive = activation” value was inactive: -66%.

As for `CCc1nnc2c3ccccc3nc(N3CCN(c4cc(Cl)ccc4C)CC3)n12`, the activity change, positive = activation is inactive: -13.5% [at 11.5 µM, percent change from vehicle, -100% = no light].

As for `CCc1ccc(-c2[nH]c3c(c2-c2c(-n4cccc4)n(C)c(=O)[nH]c2=O)c(=O)[nH]c(=O)n3C)cc1`, the “activity change, positive = activation” value was inactive: -3.02%.

On to `O=C(Nc1nnc(S(=O)(=O)N2CCCCC2)s1)c1ccc(Cl)cc1`, for which the “activity change, positive = activation” value was inactive: -17%.

As to `O=C1NC(=O)C(c2ccccc2[N+](=O)[O-])=C1Nc1ccc(O)c(Cl)c1`, the “activity change, positive = activation” value was inactive: -28.2%.

On to `CC(=O)Nc1ccc(NS(=O)(=O)c2ccc3c(c2)CCCN3C(C)=O)cc1`, for which the “activity change, positive = activation” value was inactive: -7.67%.

As to `COc1ccc(-n2ncc(C(=O)Nc3ccc(C)cc3Cl)c2C2CCN(C(=O)OC(C)(C)C)CC2)cc1`, the “activity change, positive = activation” value is inactive: -27.2%.

On to `O=S(=O)(NCCc1csc(-c2ccc(F)cc2)n1)c1ccc(F)cc1F`, for which the “activity change, positive = activation” value was inactive: -43.9%.

For the molecule `COc1ccc(N2CC(NC(=O)c3cccs3)CC2=O)cc1OC` (stereo unspecified), the “activity change, positive = activation” value is inactive: -19.7%.

As to `O=C(Nc1ccc(F)cc1)c1ccc(-n2cnnc2)cc1`, the “activity change, positive = activation” value is inactive: -12.3%.

With `CCOC(=O)c1cc(-c2ccc(C)cc2)n(CCC(=O)NCc2ccccc2)c1C`, the “activity change, positive = activation” value is inactive: -28.5%.

As to `Cc1ccc(-c2nc3scc(CCNS(=O)(=O)c4ccc(C)c(C)c4)n3n2)cc1`, the “activity change, positive = activation” value is inactive: -20.1%.

Take `Cc1cccc(OCC(=O)Nc2ccc(C(=O)OCc3cc(=O)n4nc(C5CC5)sc4n3)cc2)c1`: the “activity change, positive = activation” value is inactive: -0.419%.

On to `COC(=O)c1ccc(NC(=O)CSc2ccc(-c3cccs3)nn2)cc1`, for which the “activity change, positive = activation” value was inactive: -7.74%.

For the molecule `CCc1ccc(NC(=O)C(Cc2ccccc2)NS(=O)(=O)c2ccc3c(c2)CCN3C(C)=O)cc1` (stereo unspecified), the “activity change, positive = activation” value was inactive: -19.9%.

For `Cc1cc(C)c(NC(=O)c2cc(CN3CCOCC3)on2)c(C)c1`, the “activity change, positive = activation” value is inactive: -10.1%.

Take `COc1ccc2cc(S(=O)(=O)c3ccccc3F)c(=O)oc2c1`: the “activity change, positive = activation” value was inactive: -60.9%.

In the case of `CCCc1ncc(C[n+]2ccccc2C)c(N)n1`, the “activity change, positive = activation” value was inactive: -7.27%.

As to `C#CCOc1ccc(C2C(C(=O)OC)=C(C)NC3=C2C(=O)c2ccccc23)cc1OCC` (stereo unspecified), the “activity change, positive = activation” value is inactive: -26.8%.

With `CCOc1ccc(Sc2cc(C(=O)NCCCOC)c3ccccc3n2)cc1`, the “activity change, positive = activation” value is inactive: -24.9%.

Regarding `CCN(CC)CCNC(=O)C1CCCN(c2nnc(C)c3c(C)n(-c4ccc(Cl)cc4)nc23)C1` (stereo unspecified), the “activity change, positive = activation” value is inactive: -23%.

In the case of `CCOc1ccc(NC(=O)CSc2nnc(CC)c(CC)n2)cc1`, the “activity change, positive = activation” value was inactive: -4.96%.

Consider `CCOc1ccc(-c2cn3c(n2)sc2cc(C(=O)NCCC4=CCCCC4)ccc23)cc1`, for which the “activity change, positive = activation” value was inactive: 6.02%.

Consider `Cc1cccc(C)c1NC(=O)C1CCCN(S(=O)(=O)c2c(C)noc2/C=C/N(C)C)C1` (stereo unspecified), for which the “activity change, positive = activation” value was inactive: -12.1%.

With `COc1ccccc1CNC(=O)c1ccc(NC(=O)N2CC(C)Sc3ccccc32)cc1` (stereo unspecified), the “activity change, positive = activation” value is inactive: -16.8%.

For `COc1ccc(S(=O)(=O)NCC(c2ccco2)S(=O)(=O)c2ccc(C)cc2)cc1C` (stereo unspecified), the “activity change, positive = activation” value is inactive: -17.4%.

Take `Cc1ccc(-c2cc(C(=O)Oc3ccccc3)c3cccc(C)c3n2)cc1`: the “activity change, positive = activation” value is inactive: -14.3%.

For the molecule `Cc1sc(-c2cc3ccccc3oc2=O)nc1-c1ccc(Cl)cc1`, the “activity change, positive = activation” value was inactive: 24.2%.

On to `COC(=O)c1cc(S(=O)(=O)N2CCN(c3ccc(C)cc3C)CC2)cn1C`, for which the “activity change, positive = activation” value is inactive: -10.5%.

Consider `O=C1CC(c2ccccc2)Cc2[nH]c(=O)c(-c3nc(-c4ccc(F)cc4)cs3)cc21` (stereo unspecified), for which the “activity change, positive = activation” value is inactive: -18.4%.

For `CC(C)Oc1ccc(CNC(=O)C2COc3ccccc3C2)cc1` (stereo unspecified), the “activity change, positive = activation” value was inactive: 14.6%.

Turning to `O=C(CN1C(=O)COc2ccc(S(=O)(=O)N3CCCC3)cc21)N1CCN(c2ccccc2F)CC1`, the “activity change, positive = activation” value was inactive: -12.4%.

With `Cc1ccccc1-c1nc(CS(=O)CC(=O)NCCc2ccc(Cl)cc2)c(C)o1` (stereo unspecified), the “activity change, positive = activation” value was inactive: -24.5%.

With `CCOC(=O)c1cnc2ccc(OCC)cc2c1N1CCN(c2cccc(Cl)c2)CC1`, the “activity change, positive = activation” value is inactive: -27.3%.

In the case of `O=C1CN(C(=O)C2CCCCC2)C(c2ccccc2)c2cc(F)ccc2N1` (stereo unspecified), the “activity change, positive = activation” value is inactive: -4.44%.

Turning to `CCOc1ccc(C2c3c(oc4ccc(C)cc4c3=O)C(=O)N2c2nc(C)c(C)s2)cc1OC` (stereo unspecified), the “activity change, positive = activation” value is inactive: -4.39%.

On to `COc1ccc(-c2noc(-c3ccc(N4CCCCC4)c([N+](=O)[O-])c3)n2)cc1`, for which the “activity change, positive = activation” value is inactive: -11%.

For `CCCCCCOc1ccc(-c2nc3ccc(Br)cc3c(=O)o2)cc1`, the “activity change, positive = activation” value was inactive: -4.04%.

Regarding `COC(=O)c1ccccc1NC(=O)Nc1cccc(OCc2cc(=O)n3cccc(C)c3n2)c1`, the “activity change, positive = activation” value is inactive: -14.5%.

Take `CN1CCN(C(=O)c2cnn(-c3cccc(F)c3)c2C2CCN(C(=O)OC(C)(C)C)CC2)CC1`: the “activity change, positive = activation” value was inactive: 0.0086%.

Consider `Cc1ccc(C)c(CSc2c(C(C)C)cnc3c2c(=O)n(C)c(=O)n3C)c1`, for which the “activity change, positive = activation” value was inactive: -30.9%.

In the case of `Cc1csc2nc(COc3ccc(NC(=O)COc4ccc(F)cc4)cc3)cc(=O)n12`, the “activity change, positive = activation” value was inactive: -1.39%.

As for `COc1ccc(N2CCN(C(CNC(=O)c3ccc(C)cc3)c3ccc4c(c3)OCO4)CC2)cc1` (stereo unspecified), the “activity change, positive = activation” value was inactive: -32.3%.
